For the assay, the target named is Cytochrome P450 2C19 (Homo sapiens) (UniProt P33261). Nature of the assay: qHTS Assay for Inhibitors and Substrates of Cytochrome P450 2C19 (AID 899). Also: nearly all actives have a fitted effect of over 60% in size. Summed up: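 5nM enzyme + 10uM Luciferin-H EGE (=KM), 50mM KPO4; cpd pin-transferred, 10 min 37C; NADPH regen, 60 min 37C; stopped w/ luciferin detection reagent, 20 min; luminescence. Normalized to 57uM ketoconazole (AC100).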
On the technique in general: In qHTS, concentration-response curves come from the screen itself.

These results are taken from PubChem BioAssay (NCATS).

Records with an inconclusive call do not appear. Calls follow the shape of the dose curve; as a rule, active = well fitted inhibition curve with a large enough effect; inconclusive = small, poorly fitted or top-dose-only effect; inactive = no such curve, though single readings can be large or run the other way. Where a structure was tested more than once in an assay, its records may differ in their call. Certain results were filed several times, with different values. This is not the full list of results. There may be further records. Values given together are repeated measurements in other runs, samples, wells, individuals or studies.
Potency is read from the fitted curve at half-maximal effect.

Chain of UniProt P33261 (P33261 whole entry, looked up): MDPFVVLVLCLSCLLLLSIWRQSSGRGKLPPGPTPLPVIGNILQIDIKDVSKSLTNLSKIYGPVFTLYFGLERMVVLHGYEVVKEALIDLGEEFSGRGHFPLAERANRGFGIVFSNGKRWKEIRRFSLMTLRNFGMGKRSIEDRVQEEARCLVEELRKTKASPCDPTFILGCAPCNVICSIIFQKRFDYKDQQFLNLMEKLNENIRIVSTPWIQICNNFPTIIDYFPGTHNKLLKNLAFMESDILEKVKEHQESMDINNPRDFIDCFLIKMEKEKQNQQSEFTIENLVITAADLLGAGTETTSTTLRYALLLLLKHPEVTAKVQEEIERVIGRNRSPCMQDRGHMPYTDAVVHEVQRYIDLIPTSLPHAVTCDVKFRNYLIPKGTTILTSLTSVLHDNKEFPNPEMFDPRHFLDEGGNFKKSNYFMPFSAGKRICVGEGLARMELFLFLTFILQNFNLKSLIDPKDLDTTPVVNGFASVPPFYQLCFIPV

Turning to `CC1CCC2C(=O)OC(CN=[N+]=[N-])CN2C1c1ccc(Br)cc1` (stereo unspecified), the Potency result is “inactive and active: 2.51 µM, 398 nM, 20 nM, 1.26 µM [separate samples]”.
